From the supplement of paper PMC7125110
± gives the standard error. This sample is rich in variants without activity.

B1: glmS ribozyme (parent)
chain: AUAAAAGCGCCAGAACUACAGAAAUGUAGUUGACGAGGAGGAGGUUUAUCGAAUUUUCGGCGGAUGCCUCCAAA

Variants of: B1
Assay: self-cleavage kobs at 2500 uM GlcN6P; higher = faster cleavage; RNA array
Settings: with glucosamine-6-phosphate
Method in brief: (§1)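 Glucosamine-6-phosphate (40 μM to 10 mM) in HEPES/KCl/Mg(OAc)2 buffer was flowed over sequenced MiSeq chips, and tiles were imaged over ~14 h. Barcoded ribozyme variants there had been transcribed in situ by E. coli RNA polymerase and were tracked through a hybridised Cy3 probe at 37 °C. One- or two-exponential decay fits to per-tile medians, normalised to baseline and to non-cleaving reference variants, gave kobs. kcat and KM came from weighted Michaelis–Menten fits across concentrations.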

First: A14U G32U A64C C70U
Second: A12U A48U C70G
The “self-cleavage kobs at 2500 uM GlcN6P” value of the first is lower: under 1e-05 s⁻¹ for the first, 0.000115 ± 5e-05 s⁻¹ for the second.

G29C G51A G62C and C19A C34U U45A A48U cannot be ordered by “self-cleavage kobs at 2500 uM GlcN6P” value: under 1e-05 s⁻¹ for the first, under 1e-05 s⁻¹ for the second.

C16A A33U A52U and A14U G29U A48G cannot be ordered by “self-cleavage kobs at 2500 uM GlcN6P” value: under 1e-05 s⁻¹ for the first, under 1e-05 s⁻¹ for the second.

G29A U30C C34U G43U U47G C70U and A14U G40U G51C cannot be ordered by “self-cleavage kobs at 2500 uM GlcN6P” value: under 1e-05 s⁻¹ for the first, under 1e-05 s⁻¹ for the second.

Compared with G29U U31A U69G C70A, U30A A42C U45G U65G C70G is 8.8-fold higher in “self-cleavage kobs at 2500 uM GlcN6P” value: 8.63e-05 ± 2.8e-05 s⁻¹ for the first, 0.000761 ± 0.00026 s⁻¹ for the second.

First: C16A U30C
Second: A14G U55G G66U
The “self-cleavage kobs at 2500 uM GlcN6P” value of the first is 69-fold lower: 2.62e-05 ± 9e-06 s⁻¹ for the first, 0.00182 ± 0.00038 s⁻¹ for the second.

G13C C34G C67A and A14G C16G U30G U49C U54A C67G C68U cannot be ordered by “self-cleavage kobs at 2500 uM GlcN6P” value: under 1e-05 s⁻¹ for the first, under 1e-05 s⁻¹ for the second.

First: A12C C34U U57C
Second: A12U C16U C70A
The “self-cleavage kobs at 2500 uM GlcN6P” value of the first is lower: under 1e-05 s⁻¹ for the first, 0.000361 ± 0.00013 s⁻¹ for the second.

Going from G29C G37A to G29U U30C U45G, the “self-cleavage kobs at 2500 uM GlcN6P” value falls from 7.11e-05 ± 1.8e-05 s⁻¹ to under 1e-05 s⁻¹.

G13C U45G A53G G62A C68G C71G and U30A G38A A52G cannot be ordered by “self-cleavage kobs at 2500 uM GlcN6P” value: under 1e-05 s⁻¹ for the first, under 1e-05 s⁻¹ for the second.

First: A12G G59U C68U
Second: A12C G43U
The “self-cleavage kobs at 2500 uM GlcN6P” value of the first is lower: under 1e-05 s⁻¹ for the first, 3.6e-05 ± 8e-06 s⁻¹ for the second.

Compared with A14U U30A C71G, C11U G29U C67G is 3.9-fold higher in “self-cleavage kobs at 2500 uM GlcN6P” value: 5.1e-05 ± 1.2e-05 s⁻¹ for the first, 0.000197 ± 6.6e-05 s⁻¹ for the second.

A12G A53G G63C and A12U A36C G40U U46A C61G cannot be ordered by “self-cleavage kobs at 2500 uM GlcN6P” value: under 1e-05 s⁻¹ for the first, under 1e-05 s⁻¹ for the second.

A12U G35U A42C U46A C68A and U30A C34G C50U G63A cannot be ordered by “self-cleavage kobs at 2500 uM GlcN6P” value: under 1e-05 s⁻¹ for the first, under 1e-05 s⁻¹ for the second.

C11G A36G G38U U69C and C16G G32C G41U U69C cannot be ordered by “self-cleavage kobs at 2500 uM GlcN6P” value: under 1e-05 s⁻¹ for the first, under 1e-05 s⁻¹ for the second.

A14C U31A U57A G63C G66A and A12G A42U A48G cannot be ordered by “self-cleavage kobs at 2500 uM GlcN6P” value: under 1e-05 s⁻¹ for the first, under 1e-05 s⁻¹ for the second.

G13A G35C A36U C71G and A14U U49A C58U cannot be ordered by “self-cleavage kobs at 2500 uM GlcN6P” value: under 1e-05 s⁻¹ for the first, under 1e-05 s⁻¹ for the second.

G29U G37A G59C and C11G A48G G66C cannot be ordered by “self-cleavage kobs at 2500 uM GlcN6P” value: under 1e-05 s⁻¹ for the first, under 1e-05 s⁻¹ for the second.

A12G G37C A64G and A12G G35U A39C G60A C68U cannot be ordered by “self-cleavage kobs at 2500 uM GlcN6P” value: under 1e-05 s⁻¹ for the first, under 1e-05 s⁻¹ for the second.

A14C U30C G66A and G13U A33C A64G cannot be ordered by “self-cleavage kobs at 2500 uM GlcN6P” value: under 1e-05 s⁻¹ for the first, under 1e-05 s⁻¹ for the second.

A15U C34U U55C C70A and G13A G41C G51U C61A cannot be ordered by “self-cleavage kobs at 2500 uM GlcN6P” value: under 1e-05 s⁻¹ for the first, under 1e-05 s⁻¹ for the second.

A14U G40A C68G and U30A A33U C34A A36C G37C U57G cannot be ordered by “self-cleavage kobs at 2500 uM GlcN6P” value: under 1e-05 s⁻¹ for the first, under 1e-05 s⁻¹ for the second.

A12G G29U U47G and C16A A39G U69G are within error of each other in “self-cleavage kobs at 2500 uM GlcN6P” value: 6.74e-05 ± 1.5e-05 s⁻¹ for the first, 0.000118 ± 3.8e-05 s⁻¹ for the second.

A14G C34U G35A G43C and A15C A52U G62U cannot be ordered by “self-cleavage kobs at 2500 uM GlcN6P” value: under 1e-05 s⁻¹ for the first, under 1e-05 s⁻¹ for the second.

A15U G40A G41U G66A C67G and A12U G29U G59U C71U cannot be ordered by “self-cleavage kobs at 2500 uM GlcN6P” value: under 1e-05 s⁻¹ for the first, under 1e-05 s⁻¹ for the second.

C11U U54C C61G and A12G C16A U30G G38A U46C cannot be ordered by “self-cleavage kobs at 2500 uM GlcN6P” value: under 1e-05 s⁻¹ for the first, under 1e-05 s⁻¹ for the second.

Going from A15C A64C C68U to G29C C50U C68A, the “self-cleavage kobs at 2500 uM GlcN6P” value rises from under 1e-05 s⁻¹ to 7.07e-05 ± 2.7e-05 s⁻¹.

First: G13C A14G G37U G59C
Second: A12C G37C
The “self-cleavage kobs at 2500 uM GlcN6P” value of the first is lower: under 1e-05 s⁻¹ for the first, 2.27e-05 ± 8.6e-06 s⁻¹ for the second.

G13A G35U A64C and A15G C34G G35A G43A A64G cannot be ordered by “self-cleavage kobs at 2500 uM GlcN6P” value: under 1e-05 s⁻¹ for the first, under 1e-05 s⁻¹ for the second.

Going from A12G A52G G60C U65G to A12C A48G C58G, the “self-cleavage kobs at 2500 uM GlcN6P” value rises from under 1e-05 s⁻¹ to 4.08e-05 ± 1.8e-05 s⁻¹.

First: A14C U30G C58G
Second: A14G G35U G37A
The “self-cleavage kobs at 2500 uM GlcN6P” value of the first is higher: 5.75e-05 ± 2.4e-05 s⁻¹ for the first, under 1e-05 s⁻¹ for the second.

A12C A15G G43C and A14U A15U G62A A64G cannot be ordered by “self-cleavage kobs at 2500 uM GlcN6P” value: under 1e-05 s⁻¹ for the first, under 1e-05 s⁻¹ for the second.

G13A C34U G44C C58A C68A and A12G G63U U65A cannot be ordered by “self-cleavage kobs at 2500 uM GlcN6P” value: under 1e-05 s⁻¹ for the first, under 1e-05 s⁻¹ for the second.

G29U G37C U46G and C16A U31A A39G U57C G60U cannot be ordered by “self-cleavage kobs at 2500 uM GlcN6P” value: under 1e-05 s⁻¹ for the first, under 1e-05 s⁻¹ for the second.

C11G G35C U69C and G13U C34U G44A U65G cannot be ordered by “self-cleavage kobs at 2500 uM GlcN6P” value: under 1e-05 s⁻¹ for the first, under 1e-05 s⁻¹ for the second.

U30A C34G and A15G G29A A36G cannot be ordered by “self-cleavage kobs at 2500 uM GlcN6P” value: under 1e-05 s⁻¹ for the first, under 1e-05 s⁻¹ for the second.

A15C A33U U54G G60A A64U and A12U G51C U55C cannot be ordered by “self-cleavage kobs at 2500 uM GlcN6P” value: under 1e-05 s⁻¹ for the first, under 1e-05 s⁻¹ for the second.

Compared with C16G U30C C34G U55C C61U C67U, G26U C58U is higher in “self-cleavage kobs at 2500 uM GlcN6P” value: under 1e-05 s⁻¹ for the first, 6.46e-05 ± 1.7e-05 s⁻¹ for the second.

A12U G32C A39U and A14U G51A C58G G60U G63U U65A cannot be ordered by “self-cleavage kobs at 2500 uM GlcN6P” value: under 1e-05 s⁻¹ for the first, under 1e-05 s⁻¹ for the second.

Variants of: B1
Assay: self-cleavage kobs at 10000 uM GlcN6P; higher = faster cleavage; RNA array
Settings: with glucosamine-6-phosphate
Method in brief: as §1

Going from C16A U30C to A14G U55G G66U, the “self-cleavage kobs at 10000 uM GlcN6P” value rises from 2.12e-05 ± 8.1e-06 s⁻¹ to 0.00253 ± 0.00062 s⁻¹ (120-fold).

First: A14G C16G U30G U49C U54A C67G C68U
Second: G29C G37A
The “self-cleavage kobs at 10000 uM GlcN6P” value of the first is lower: under 1e-05 s⁻¹ for the first, 0.000165 ± 3.8e-05 s⁻¹ for the second.

Going from A12C G43U to G13A G35C A36U C71G, the “self-cleavage kobs at 10000 uM GlcN6P” value falls from 4.74e-05 ± 9.2e-06 s⁻¹ to under 1e-05 s⁻¹.

Going from U30A A33U C34A A36C G37C U57G to A12C G37C, the “self-cleavage kobs at 10000 uM GlcN6P” value rises from under 1e-05 s⁻¹ to 5.03e-05 ± 7.5e-06 s⁻¹.

A12C A15G G43C and A15G G29A A36G cannot be ordered by “self-cleavage kobs at 10000 uM GlcN6P” value: under 1e-05 s⁻¹ for the first, under 1e-05 s⁻¹ for the second.

G26U C58U was tested, and the “self-cleavage kobs at 10000 uM GlcN6P” value was 7.64e-05 ± 1.4e-05 s⁻¹.
